From the RNAGym collection of RNA variant scans (doi:10.7554/elife.90254)
The source gives no read counts; variants with many changes may rest on few reads.

B1: OR4K15 (parent)
chain: GUUAACGGUCAUAGGCCAUGGAAACUAGGAGCACCAUUUCGCUGCCAGUGAAGAAAUGAACAAAGAAAAUCUGGGCCAGGCAGGCAUCAAAAGAAAUAGUCUUGCGCUCAACCAGAAAGUCUGUAAUCAUUUUAAGGGUA

Variants of: B1
Test: self-cleavage, relative activity (ratio to wild type); higher = more cleavage; in vitro, sequencing; the parent is a self-cleaving ribozyme

Variant | self-cleavage
A66G A68G A111U A134G | 0.11
A60G U132C U139C | 1.21
A66G A94G A98G U102C U108C | 0.01
A62U A63G G119U | 0
A64G C112U A134G | 0.01
A60G A89U U100C | 2.15
A62G U100C U102C | 2.15
A62G A118G U130C | 0.3
A63G A111U U127C | 0.05
A60G A66G A125G | 0.58
A62G U108C C109U | 0.02
A62U G79A A117G | 0.15
A60U A66G A98U | 1.95
A60U A66G A90G | 1.05
A64G A66G A116G | 0.55
A66G A91G U133C | 1.38
A62U A69G U108A | 0.04
A66G A78U A111U | 0.01
A63G A86G U120A U124C | 0.86
A63G A86U A118G A134G A140G | 1.28
A62U U72C A82G | 0.14
A66G A68G A69U | 1.54
A66G A82G U122C | 0.64
A60G G79A A98G | 0.07

Variant | self-cleavage
A60G A116G U127C | 0.18
A60G U108C A111G | 0.01
A62G G74A A118U | 0.05
A60G A117G U132C | 1.53
A63U U102A U130C | 0.48
A60G U70C A91G A116U | 0.13
G65U A91G A126G | 0.32
A63G U72C A82C A92G C112U | 0.03
A63C A64C U122C | 1.75
A62U A126G U127C | 0.61
A62G A110G U131C | 0.1
A62G A69G U100C | 1.86
A67G A82G U108C | 0.05
A67G A82U A94U | 0.18
A67G A86G A98C U127C | 1.21
A63G A92G A111U | 0.13
A63G A68G A82G U103C C107A | 0.01
A66U A78C U127G | 0.17
A64G A68G A78G U102C A111U | 0.02
A64G A90G U130C | 0.67
A62G G79A A92G A95G | 0.08
G65U G74A U102C | 0.5
A64G C81U A118G | 0.31
A67G A89U A110G | 0.12

Variant | self-cleavage
A62G A86G G99A U103C A116G U122C U132A | 0.02
A60G G74A U100C | 0.44
A66U A92G A117G U120A | 1.97
A66G U103A A140U | 0.23
C61U A68G U130C | 0.83
A62G U100A A140G | 0.54
A66G A96G A117G A118G | 1.45
A63G A94U A117G | 1.97
A62G A117G U132C | 2.37
A63G A89G U100C | 2.17
A60G C113U A117G | 0.02
A60G G80U A116G U127C U132C | 0.01
G65A A110U U133C A135G | 1.12
A66G A78G A96G | 0.25
A60G A82U A92G U102C | 0.18
A64G U72A C121G U130C | 0.22
A67G A92G U131C A134U | 1.3
A60U C85G A96G U124C | 0.69
A66G A118G U127C | 0.49
A62G A96G A110G | 0.16
A62G A68G A82G U108C A111G | 0.01
A62G A63G A90U | 1.25
A62G U70C A118G | 0.21
A64G A94G A117G | 0.64

Variant | self-cleavage
A63G A69U A114C | 0.09
A63G G83A A94G | 1.55
A67G A82G A118U | 0.08
A62G A66G A110U A135U | 1.32
A63C U87C C105U | 0.3
A63G A89G A116G | 0.44
A60G A89G A90C A95G A111G U120A | 0.01
A60G A89C U100C | 2.69
A64G G65A A135G | 0.95
A66G A98G U124C | 0.31
A62G A82G A129G | 0.13
A60G U102C C113U | 0.18
A63G A69G U70C A92G A118G U132C | 0.15
A60G C105U U108C U133A | 0
A62U U108C U120A | 0.01
A63C A78G C112U | 0.02
A63G U70A U131C | 1.14
A62C A94G A111G | 0.03
A60G A91U U132C | 2.41
A60G A66G U103C | 1.04
A60G U100C U132G | 1.52
A60G A67C A117U | 0.53
A64G G73A U97C A135G | 0.04
A63G A67G A78G | 0.23

Variant | self-cleavage
A62G A94G U127C | 0.65
A62U A78G U100C U122C | 0.28
A64U A89G A111G | 0.02
A60G A90G A94G U127C A140G | 0.13
A60G A69G A94G U108C A140C | 0
A63G G79A A95G | 0.05
A64G U120A U122C | 1.53
G65A U120C U124C | 0.2
A64G U102C A111U A114C U127C | 0.01
A64G U87C U103A A116G A126G | 0.15
A62G U70A A96G | 0.54
A63G A82G A96G | 0.99
A66G U122A U124C U130C A140G | 0
A60G A111G A117U | 0
A62G A67G A116G | 0.16
A62G A68G A126U | 0.69
A60U U103C U108C | 0
A66G U72C A111G | 0
A62G A66G A69G | 0.57
A63G A95G C112U U122C U132C | 0
A63G A67G U132A | 1.56
A64G A82G A95G | 1.29
A64G A91G U103A U122C | 0.86
A62G A68G G138A | 0.47

Variant | self-cleavage
A60G A68G U108A | 0.02
A60G A92G U122A U132A | 1.17
A67C U130C U131C | 1.72
A60G A67G U72A A78G A92G U130C | 0.06
G65A A91U U122G | 2.88
A60G A90G U108C A118U | 0.01
A62U G75A A82G U120A | 0.18
A67G A78U A86U A95U | 0.16
A60G U70C A111G A135G | 0
A62U A91G U139C | 1.37
A62G A64G A89U A114G | 0.52
A64G U72A U122G | 0.61
A64G G79A A86G A117G G138C | 0.08
A63G G75A U87A | 0.04
A60G C76U A111U | 0.03
C61U G73U U87A | 0.12
A64G U70A A86G A118G | 0.23
A67G A78G A94G | 0.04
A64G A69G U100C U127C | 1.06
A67G A91U U132C | 1.48
A63C A64G A92G U97C | 1.44
A62G G79A A116G | 0.09
A66U A67U A96G | 1.78
A60G U70G U72A A78G A91G A140G | 0.12

Variant | self-cleavage
A60G A67G A114U | 0.06
A63G U103C A114C | 0.05
A60U C81A U133C | 0.14
A66U A96U U100G U124C | 1.14
A64G A92C A111G U130C U133A | 0
A63G A96G C105U A110G | 0.1
A62U A92G U120C U130C | 0.44
G65A U87C A111U A117G | 0.06
A60G A69G A96G U127A | 1.48
A66G U70A A92G U124C | 0.35
A62G U108C A117G U131C | 0
A62G A67G A114G | 0.15
A64G U70C U108C A116G | 0.02
A60U A96G G106U U122C | 0.01
A66G A96U U108C | 0.02
A60G U70A A82U | 0.24
A66G A82G U100C U102C | 2.56
A64G A114U U120G | 0.12
A64G U97C A114G | 0.51
A63G A86G C101A U139C | 0.04
A64G A67G A78U U120C | 0.27
A67G A78U A82U U87C | 0.11
A60G A86U G106A | 0
